Among the data in PMC5686351, “Tudor-domain protein PHF20L1 reads lysine methylated retinoblastoma tumour suppressor protein” (Cell Death and Differentiation, 2017) are binding values, retold here.

Results are given in words; binding and its absence hold for the method and conditions named. For some of these results: In cells and extracts the contact can be indirect. Some binding calls cover weakened binding; strength is not graded here. For some of these results: Sequences can lack the tags named with a protein.

For experiment [1], the target named is T1, RbK810me1 peptide (biotin-…[me]SPYKISEG) (human).
T1 sequence (peptide, biotin on the N-terminus; mono-methyl-lysine K[me] at K810): GNIYISPLKSPYKISEG
Nature of the experiment: pull-down; peptides immobilised on streptavidin-agarose; 250 ng recombinant GST fusion, 30 min at 4 °C; eight washes in modified RIPA with 300 mM NaCl; flow-through and eluate blotted; both purified.

The target of the next experiment is T2, HA-pRb (human) (UniProt P06400).
T2 sequence: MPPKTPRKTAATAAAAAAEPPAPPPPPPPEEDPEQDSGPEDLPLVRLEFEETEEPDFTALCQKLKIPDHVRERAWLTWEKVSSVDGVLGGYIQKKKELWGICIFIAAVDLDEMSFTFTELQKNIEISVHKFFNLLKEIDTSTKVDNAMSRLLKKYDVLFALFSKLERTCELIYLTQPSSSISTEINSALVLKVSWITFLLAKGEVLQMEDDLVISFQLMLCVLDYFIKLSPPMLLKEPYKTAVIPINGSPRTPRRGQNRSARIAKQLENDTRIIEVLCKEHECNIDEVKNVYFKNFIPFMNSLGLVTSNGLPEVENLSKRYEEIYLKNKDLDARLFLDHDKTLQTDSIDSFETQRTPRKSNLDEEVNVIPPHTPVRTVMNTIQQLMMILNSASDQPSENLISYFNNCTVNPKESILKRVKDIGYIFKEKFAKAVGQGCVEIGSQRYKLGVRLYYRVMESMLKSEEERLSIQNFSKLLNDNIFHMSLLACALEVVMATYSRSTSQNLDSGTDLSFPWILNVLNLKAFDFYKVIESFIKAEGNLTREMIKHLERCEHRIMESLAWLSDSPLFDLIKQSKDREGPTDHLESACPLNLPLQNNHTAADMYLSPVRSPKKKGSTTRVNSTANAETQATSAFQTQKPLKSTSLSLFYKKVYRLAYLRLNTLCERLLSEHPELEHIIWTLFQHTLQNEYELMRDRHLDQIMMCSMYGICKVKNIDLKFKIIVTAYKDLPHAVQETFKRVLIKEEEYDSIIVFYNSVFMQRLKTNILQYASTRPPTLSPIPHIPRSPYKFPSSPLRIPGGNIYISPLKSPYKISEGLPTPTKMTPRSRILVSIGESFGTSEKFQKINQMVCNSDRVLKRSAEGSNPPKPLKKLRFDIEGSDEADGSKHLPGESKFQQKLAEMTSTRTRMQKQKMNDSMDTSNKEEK
Description: co-IP; U2OS pRb CRISPR cell lines stably expressing HA-pRb or HA-pRb-K810R; anti-HA agarose in modified RIPA; endogenous PHF20L1 detected by immunoblot.

The target in experiment [2] is T3, tudor 1 domain of PHF20L1 on the CADOR array (UniProt A8MW92).
T3 sequence: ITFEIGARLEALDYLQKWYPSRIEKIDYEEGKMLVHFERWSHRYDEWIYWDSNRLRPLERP
Description: peptide or protein array; CADOR array of GST-fused chromatin-associated domains, probed with labelled biotinylated pRb peptides; both purified.

B1: GST-PHF20L1 tudor 2 (54–160) (domain or fragment, UniProt A8MW92 54-160)
chain: YDEWIYWDSNRLRPLERPALRKEGLKDEEDFFDFKAGEEVLARWTDCRYYPAKIEAINKEGTFTVQFYDGVIRCLKRMHIKAMPEDAKGQVKSQHPLSWCCPIDPAG
As for B1, the binding result in experiment [1] is reported as “no binding”.

B2: endogenous PHF20L1 (protein, UniProt A8MW92 1-1017)
chain: MSKKPPNRPGITFEIGARLEALDYLQKWYPSRIEKIDYEEGKMLVHFERWSHRYDEWIYWDSNRLRPLERPALRKEGLKDEEDFFDFKAGEEVLARWTDCRYYPAKIEAINKEGTFTVQFYDGVIRCLKRMHIKAMPEDAKGQVKSQHPLSWCCPIDPAGSCNQSMGSEDWIALVKAAAAAAAKNKTGSKPRTSANSNKDKDKDERKWFKVPSKKEETSTCIATPDVEKKEDLPTSSETFGLHVENVPKMVFPQPESTLSNKRKNNQGNSFQAKRARLNKITGLLASKAVGVDGAEKKEDYNETAPMLEQAISPKPQSQKKNEADISSSANTQKPALLSSTLSSGKARSKKCKHESGDSSGCIKPPKSPLSPELIQVEDLTLVSQLSSSVINKTSPPQPVNPPRPFKHSERRRRSQRLATLPMPDDSVEKVSSPSPATDGKVFSISSQNQQESSVPEVPDVAHLPLEKLGPCLPLDLSRGSEVTAPVASDSSYRNECPRAEKEDTQMLPNPSSKAIADGRGAPAAAGISKTEKKVKLEDKSSTAFGKRKEKDKERREKRDKDHYRPKQKKKKKKKKKSKQHDYSDYEDSSLEFLERCSSPLTRSSGSSLASRSMFTEKTTTYQYPRAILSVDLSGENLSDVDFLDDSSTESLLLSGDEYNQDFDSTNFEESQDEDDALNEIVRCICEMDEENGFMIQCEECLCWQHSVCMGLLEESIPEQYICYICRDPPGQRWSAKYRYDKEWLNNGRMCGLSFFKENYSHLNAKKIVSTHHLLADVYGVTEVLHGLQLKIGILKNKHHPDLHLWACSGKRKDQDQIIAGVEKKIAQDTVNREEKKYVQNHKEPPRLPLKMEGTYITSEHSYQKPQSFGQDCKSLADPGSSDDDDVSSLEEEQEFHMRSKNSLQYSAKEHGMPEKNPAEGNTVFVYNDKKGTEDPGDSHLQWQLNLLTHIENVQNEVTSRMDLIEKEVDVLESWLDFTGELEPPDPLARLPQLKRHIKQLLIDMGKVQQIATLCSV
Consider B2, for which the binding result in the experiment with HA-pRb (human) is “binds”.

B3: GST-PHF20 tudor 1+2 (1–148) (domain or fragment, UniProt Q9BVI0 1-148)
chain: MTKHPPNRRGISFEVGAQLEARDRLKNWYPAHIEDIDYEEGKVLIHFKRWNHRYDEWFCWDSPYLRPLEKIQLRKEGLHEEDGSSEFQINEQVLACWSDCRFYPAKVTAVNKDGTYTVKFYDGVVQTVKHIHVKAFSKDQNIVGNARP
Turning to B3, in experiment [1], the binding result is “binds weakly”.

B4: GST-PHF20L1 tudor 1 D23A (domain or fragment, UniProt A8MW92 1-74)
chain: MSKKPPNRPGITFEIGARLEALAYLQKWYPSRIEKIDYEEGKMLVHFERWSHRYDEWIYWDSNRLRPLERPALR
Regarding B4, the binding result in experiment [1] was “no binding”.

B5: RbK810me1 peptide (biotin-…[me]SPYKISEG) (peptide)
peptide: GNIYISPLKSPYKISEG
modifications: biotin on the N-terminus; mono-methyl-lysine K[me] at K810
On to B5, for which the binding entry in experiment [2] was “binds”.

B6: GST-PHF20 tudor 2 (58–148) (domain or fragment, UniProt Q9BVI0 58-148)
chain: FCWDSPYLRPLEKIQLRKEGLHEEDGSSEFQINEQVLACWSDCRFYPAKVTAVNKDGTYTVKFYDGVVQTVKHIHVKAFSKDQNIVGNARP
As for B6, in experiment [1], the binding result was “binds weakly”.

B7: GST-PHF20 tudor 1 (1–83) (domain or fragment, UniProt Q9BVI0 1-83)
chain: MTKHPPNRRGISFEVGAQLEARDRLKNWYPAHIEDIDYEEGKVLIHFKRWNHRYDEWFCWDSPYLRPLEKIQLRKEGLHEEDG
B7: in experiment [1], the binding entry is reported as “binds weakly”.
